# In the supplement of paper PMC8728848:
# The list shows a part of the results.
# B1: Gal 7 (Homo sapiens) (protein)
# chain: MSNVPHKSSLPEGIRPGTVLRIRGLVPPNASRFHVNLLCGEEGGSDAALHFNPRLDTSEVVFNSKEGGSWGREERGPGVPFGRGQPFEVLIIASDDGFKAVVGDAQYHHFRHRLPLARVRLVEVGGDVQLDSVRIF
# What was measured:
# Test in all cases: glycan array binding signal (z-score within array); higher = stronger binding
# Settings in all cases: glycan notation: IUPAC condensed, linker removed
# [1] = molecular target: GlcNAc(b1-2)[GlcNAc(b1-4)]Man(a1-3)[GlcNAc(b1-2)Man(a1-6)]Man(b1-4)GlcNAc(b1-4)GlcNAc
# In short: (§1)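 The binding signal is a Z-score computed within each array and averaged over linkers. Arrays of the same protein sequence at different concentrations or buffers were also averaged together. Data originate from 3228 arrays in the Consortium for Functional Glycomics database, kept only where the protein sequence was available.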
# [2] = molecular target: GlcNAc(b1-2)[GlcNAc(b1-4)]Man(a1-3)[GlcNAc(b1-4)][GlcNAc(b1-2)Man(a1-6)]Man(b1-4)GlcNAc(b1-4)GlcNAc
# In short: as §1
# [3] = molecular target: GlcNAc(b1-2)[GlcNAc(b1-4)]Man(a1-3)[GlcNAc(b1-4)][GlcNAc(b1-2)[GlcNAc(b1-6)]Man(a1-6)]Man(b1-4)GlcNAc(b1-4)GlcNAc
# In short: as §1
# [4] = molecular target: GlcNAc(b1-2)[GlcNAc(b1-4)]Man(a1-3)[GlcNAc(b1-4)][GlcNAc(b1-2)[GlcNAc(b1-6)]Man(a1-6)]Man(b1-4)GlcNAc(b1-4)[Fuc(a1-6)]GlcNAc
# In short: as §1
# [5] = molecular target: GlcNAc(b1-2)[GlcNAc(b1-6)]Man(a1-6)[GlcNAc(b1-2)Man(a1-3)]Man(b1-4)GlcNAc(b1-4)GlcNAc
# In short: as §1
# [6] = molecular target: GlcNAc(b1-2)[GlcNAc(b1-6)]Man(a1-6)[GlcNAc(b1-2)Man(a1-3)]Man(b1-4)GlcNAc(b1-4)[Fuc(a1-6)]GlcNAc
# In short: as §1
# [7] = molecular target: GlcNAc(b1-2)[GlcNAc(b1-6)]Man(a1-6)[GlcNAc(b1-2)Man(a1-3)][GlcNAc(b1-4)]Man(b1-4)GlcNAc(b1-4)GlcNAc
# In short: as §1
# [8] = molecular target: GlcNAc(b1-2)[GlcNAc(b1-6)]Man(a1-6)[GlcNAc(b1-4)][GlcNAc(b1-2)Man(a1-3)]Man(b1-4)GlcNAc(b1-4)GlcNAc
# In short: as §1
# [9] = molecular target: GlcNAc(b1-3)Fuc
# In short: as §1
# [10] = molecular target: GlcNAc(b1-3)Gal
# In short: as §1
# [11] = molecular target: GlcNAc(b1-3)Gal(b1-3)GalNAc
# In short: as §1
# [12] = molecular target: GlcNAc(b1-3)Gal(b1-4)Glc
# In short: as §1
# [13] = molecular target: GlcNAc(b1-3)Gal(b1-4)GlcNAc
# In short: as §1
# [14] = molecular target: GlcNAc(b1-3)Gal(b1-4)GlcNAc(b1-2)Man(a1-3)[GlcNAc(b1-3)Gal(b1-4)GlcNAc(b1-2)Man(a1-6)]Man(b1-4)GlcNAc(b1-4)GlcNAc
# In short: as §1
# [15] = molecular target: GlcNAc(b1-3)Gal(b1-4)GlcNAc(b1-2)Man(a1-3)[GlcNAc(b1-3)Gal(b1-4)GlcNAc(b1-2)Man(a1-6)]Man(b1-4)GlcNAc(b1-4)[Fuc(a1-6)]GlcNAc
# In short: as §1
# [16] = molecular target: GlcNAc(b1-3)Gal(b1-4)GlcNAc(b1-2)[GlcNAc(b1-3)Gal(b1-4)GlcNAc(b1-6)]Man(a1-6)[GlcNAc(b1-3)Gal(b1-4)GlcNAc(b1-2)Man(a1-3)]Man(b1-4)GlcNAc(b1-4)GlcNAc
# In short: as §1
# [17] = molecular target: GlcNAc(b1-3)Gal(b1-4)GlcNAc(b1-3)Gal(b1-4)GlcNAc
# In short: as §1
# [18] = molecular target: GlcNAc(b1-3)Gal(b1-4)GlcNAc(b1-3)Gal(b1-4)GlcNAc(b1-2)Man(a1-3)[GlcNAc(b1-3)Gal(b1-4)GlcNAc(b1-3)Gal(b1-4)GlcNAc(b1-2)Man(a1-6)]Man(b1-4)GlcNAc(b1-4)GlcNAc
# In short: as §1
# [19] = molecular target: GlcNAc(b1-3)Gal(b1-4)GlcNAc(b1-3)Gal(b1-4)GlcNAc(b1-2)Man(a1-3)[GlcNAc(b1-3)Gal(b1-4)GlcNAc(b1-3)Gal(b1-4)GlcNAc(b1-2)Man(a1-6)]Man(b1-4)GlcNAc(b1-4)[Fuc(a1-6)]GlcNAc
# In short: as §1
# [20] = molecular target: GlcNAc(b1-3)Gal(b1-4)GlcNAc(b1-3)Gal(b1-4)GlcNAc(b1-2)[GlcNAc(b1-3)Gal(b1-4)GlcNAc(b1-3)Gal(b1-4)GlcNAc(b1-6)]Man(a1-6)[GlcNAc(b1-3)Gal(b1-4)GlcNAc(b1-3)Gal(b1-4)GlcNAc(b1-2)Man(a1-3)]Man(b1-4)GlcNAc(b1-4)[Fuc(a1-6)]GlcNAc
# In short: as §1
# [21] = molecular target: GlcNAc(b1-3)Gal(b1-4)GlcNAc(b1-3)Gal(b1-4)GlcNAc(b1-3)Gal(b1-4)GlcNAc(b1-2)Man(a1-3)[GlcNAc(b1-3)Gal(b1-4)GlcNAc(b1-3)Gal(b1-4)GlcNAc(b1-3)Gal(b1-4)GlcNAc(b1-2)Man(a1-6)]Man(b1-4)GlcNAc(b1-4)GlcNAc
# In short: as §1
# [22] = molecular target: GlcNAc(b1-3)Gal(b1-4)GlcNAc(b1-3)Gal(b1-4)GlcNAc(b1-3)Gal(b1-4)GlcNAc(b1-2)Man(a1-3)[GlcNAc(b1-3)Gal(b1-4)GlcNAc(b1-3)Gal(b1-4)GlcNAc(b1-3)Gal(b1-4)GlcNAc(b1-2)Man(a1-6)]Man(b1-4)GlcNAc(b1-4)[Fuc(a1-6)]GlcNAc
# In short: as §1
binder,measurement,setting,value
B1,glycan array binding signal (z-score),[1],-0.236
same,glycan array binding signal (z-score),[2],-0.311
same,glycan array binding signal (z-score),[3],-0.33
same,glycan array binding signal (z-score),[4],-0.347
same,glycan array binding signal (z-score),[5],-0.2
same,glycan array binding signal (z-score),[6],0.103
same,glycan array binding signal (z-score),[7],-0.365
same,glycan array binding signal (z-score),[8],-0.288
same,glycan array binding signal (z-score),[9],-0.128
same,glycan array binding signal (z-score),[10],-0.336
same,glycan array binding signal (z-score),[11],-0.252
same,glycan array binding signal (z-score),[12],-0.35
same,glycan array binding signal (z-score),[13],-0.352
same,glycan array binding signal (z-score),[14],-0.049
same,glycan array binding signal (z-score),[15],-0.05
same,glycan array binding signal (z-score),[16],0.012
same,glycan array binding signal (z-score),[17],0.373
same,glycan array binding signal (z-score),[18],3.98
same,glycan array binding signal (z-score),[19],1.88
same,glycan array binding signal (z-score),[20],3.85
same,glycan array binding signal (z-score),[21],4.92
same,glycan array binding signal (z-score),[22],4.84
